Reference: the supplement of paper PMC8728848
Some of the results follow.

Experiments:
Assay in all cases: glycan array binding signal (z-score within array); higher = stronger binding
Conditions in all cases: glycan notation: IUPAC condensed, linker removed; mutation: H262T
[1] = target: Fuc(a1-2)[Gal(a1-3)]Gal(b1-4)GlcNAc(b1-2)Man(a1-3)[Fuc(a1-2)[Gal(a1-3)]Gal(b1-4)GlcNAc(b1-2)Man(a1-6)]Man(b1-4)GlcNAc(b1-4)GlcNAc
Method in brief: (§1)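 Glycan array binding is given as a within-array Z-score, which can be read as non-binding when negative. The arrays, 3228 of them, came from the Consortium for Functional Glycomics database and were retained only where the protein sequence was available. Z-scores were averaged across arrays of the same protein sequence at different concentrations or buffers and across linkers.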

[2] = target: Fuc(a1-2)[Gal(a1-3)]Gal(b1-4)GlcNAc(b1-2)Man(a1-3)[Fuc(a1-2)[Gal(a1-3)]Gal(b1-4)GlcNAc(b1-2)Man(a1-6)]Man(b1-4)GlcNAc(b1-4)[Fuc(a1-6)]GlcNAc
Method in brief: as §1

[3] = target: Fuc(a1-2)[Gal(a1-3)]Gal(b1-4)GlcNAc(b1-3)GalNAc
Method in brief: as §1

[4] = target: Fuc(a1-2)[Gal(a1-3)]Gal(b1-4)GlcNAc(b1-3)[Fuc(a1-2)[Gal(a1-3)]Gal(b1-4)GlcNAc(b1-6)]GalNAc
Method in brief: as §1

[5] = target: Fuc(a1-2)[Gal(a1-3)]Gal(b1-4)GlcNAc(b1-6)GalNAc
Method in brief: as §1

[6] = target: Fuc(a1-2)[Gal(a1-3)]Gal(b1-4)[Fuc(a1-3)]Glc
Method in brief: as §1

[7] = target: Fuc(a1-2)[Gal(a1-3)]Gal(b1-4)[Fuc(a1-3)]GlcNAc
Method in brief: as §1

[8] = target: Fuc(a1-2)[Gal(a1-3)]Gal(b1-4)[Fuc(a1-3)]GlcNAc(b1-3)GalNAc
Method in brief: as §1

[9] = target: Fuc(a1-2)[Gal(a1-4)]Gal(b1-4)GlcNAc
Method in brief: as §1

[10] = target: Fuc(a1-2)[GalNAc(a1-3)]Gal
Method in brief: as §1

[11] = target: Fuc(a1-2)[GalNAc(a1-3)]Gal(b1-3)GalNAc(a1-3)[Fuc(a1-2)]Gal(b1-4)GlcNAc
Method in brief: as §1

[12] = target: Fuc(a1-2)[GalNAc(a1-3)]Gal(b1-3)GalNAc(b1-3)Gal(a1-4)Gal(b1-4)Glc
Method in brief: as §1

[13] = target: Fuc(a1-2)[GalNAc(a1-3)]Gal(b1-3)GlcNAc
Method in brief: as §1

[14] = target: Fuc(a1-2)[GalNAc(a1-3)]Gal(b1-3)GlcNAc(b1-2)Man(a1-3)[Fuc(a1-2)[GalNAc(a1-3)]Gal(b1-3)GlcNAc(b1-2)Man(a1-6)]Man(b1-4)GlcNAc(b1-4)GlcNAc
Method in brief: as §1

[15] = target: Fuc(a1-2)[GalNAc(a1-3)]Gal(b1-3)GlcNAc(b1-2)Man(a1-3)[Fuc(a1-2)[GalNAc(a1-3)]Gal(b1-3)GlcNAc(b1-2)Man(a1-6)]Man(b1-4)GlcNAc(b1-4)[Fuc(a1-6)]GlcNAc
Method in brief: as §1

[16] = target: Fuc(a1-2)[GalNAc(a1-3)]Gal(b1-3)GlcNAc(b1-3)GalNAc
Method in brief: as §1

[17] = target: Fuc(a1-2)[GalNAc(a1-3)]Gal(b1-3)GlcNAc(b1-6)GalNAc
Method in brief: as §1

[18] = target: Fuc(a1-2)[GalNAc(a1-3)]Gal(b1-4)Glc
Method in brief: as §1

[19] = target: Fuc(a1-2)[GalNAc(a1-3)]Gal(b1-4)GlcNAc
Method in brief: as §1

[20] = target: Fuc(a1-2)[GalNAc(a1-3)]Gal(b1-4)GlcNAc(b1-2)Man
Method in brief: as §1

[21] = target: Fuc(a1-2)[GalNAc(a1-3)]Gal(b1-4)GlcNAc(b1-2)Man(a1-3)[Fuc(a1-2)[GalNAc(a1-3)]Gal(b1-4)GlcNAc(b1-2)Man(a1-6)]Man(b1-4)GlcNAc(b1-4)GlcNAc
Method in brief: as §1

[22] = target: Fuc(a1-2)[GalNAc(a1-3)]Gal(b1-4)GlcNAc(b1-2)Man(a1-3)[Fuc(a1-2)[GalNAc(a1-3)]Gal(b1-4)GlcNAc(b1-2)Man(a1-6)]Man(b1-4)GlcNAc(b1-4)[Fuc(a1-6)]GlcNAc
Method in brief: as §1

[23] = target: Fuc(a1-2)[GalNAc(a1-3)]Gal(b1-4)GlcNAc(b1-3)Gal(b1-4)GlcNAc
Method in brief: as §1

[24] = target: Fuc(a1-2)[GalNAc(a1-3)]Gal(b1-4)GlcNAc(b1-3)Gal(b1-4)GlcNAc(b1-3)Gal(b1-4)GlcNAc
Method in brief: as §1

[25] = target: Fuc(a1-2)[GalNAc(a1-3)]Gal(b1-4)GlcNAc(b1-3)GalNAc
Method in brief: as §1

[26] = target: Fuc(a1-2)[GalNAc(a1-3)]Gal(b1-4)GlcNAc(b1-3)[Fuc(a1-2)[GalNAc(a1-3)]Gal(b1-4)GlcNAc(b1-6)]GalNAc
Method in brief: as §1

[27] = target: Fuc(a1-2)[GalNAc(a1-3)]Gal(b1-4)GlcNAc(b1-6)GalNAc
Method in brief: as §1

[28] = target: Fuc(a1-2)[GalNAc(a1-3)]Gal(b1-4)[Fuc(a1-3)]GlcNAc
Method in brief: as §1

[29] = target: Fuc(a1-2)[GalNAc(a1-3)]Gal(b1-4)[Fuc(a1-3)]GlcNAc(b1-3)GalNAc
Method in brief: as §1

[30] = target: Fuc(a1-2)[GalNAc(a1-4)]Gal(b1-4)GlcNAc
Method in brief: as §1

[31] = target: Fuc(a1-2)[GalNAc(b1-3)]Gal
Method in brief: as §1

[32] = target: Fuc(a1-3)GlcNAc
Method in brief: as §1

[33] = target: Fuc(a1-3)[Gal(b1-4)]Glc6S
Method in brief: as §1

[34] = target: Fuc(a1-3)[Gal(b1-4)]GlcNAc
Method in brief: as §1

[35] = target: Fuc(a1-3)[Gal(b1-4)]GlcNAc(b1-2)Man
Method in brief: as §1

[36] = target: Fuc(a1-3)[Gal(b1-4)]GlcNAc(b1-2)Man(a1-3)[Fuc(a1-3)[Gal(b1-4)]GlcNAc(b1-2)Man(a1-6)]Man(b1-4)GlcNAc(b1-4)GlcNAc
Method in brief: as §1

[37] = target: Fuc(a1-3)[Gal(b1-4)]GlcNAc(b1-2)Man(a1-3)[Fuc(a1-3)[Gal(b1-4)]GlcNAc(b1-2)Man(a1-6)]Man(b1-4)GlcNAc(b1-4)[Fuc(a1-6)]GlcNAc
Method in brief: as §1

[38] = target: Fuc(a1-3)[Gal(b1-4)]GlcNAc(b1-3)Gal(b1-3)[Fuc(a1-4)]GlcNAc
Method in brief: as §1

[39] = target: Fuc(a1-3)[Gal(b1-4)]GlcNAc(b1-3)Gal(b1-4)[Fuc(a1-3)]GlcNAc
Method in brief: as §1

[40] = target: Fuc(a1-3)[Gal(b1-4)]GlcNAc(b1-3)Gal(b1-4)[Fuc(a1-3)]GlcNAc(b1-3)Gal(b1-4)[Fuc(a1-3)]GlcNAc
Method in brief: as §1

[41] = target: Fuc(a1-3)[Gal(b1-4)]GlcNAc(b1-3)GalNAc
Method in brief: as §1

[42] = target: Fuc(a1-3)[Gal(b1-4)]GlcNAc(b1-6)GalNAc
Method in brief: as §1

[43] = target: Fuc(a1-3)[Gal(b1-4)]GlcNAc(b1-6)[Gal(b1-3)GlcNAc(b1-3)]Gal(b1-4)Glc
Method in brief: as §1

[44] = target: Fuc(a1-3)[Gal(b1-4)]GlcNAc6S
Method in brief: as §1

[45] = target: Fuc(a1-3)[Gal3S(b1-4)]Glc
Method in brief: as §1

[46] = target: Fuc(a1-3)[Gal3S(b1-4)]GlcNAc
Method in brief: as §1

[47] = target: Fuc(a1-3)[Gal3S(b1-4)]GlcNAc6S
Method in brief: as §1

[48] = target: Fuc(a1-3)[GalNAc(b1-4)]GlcNAc
Method in brief: as §1

[49] = target: Fuc(a1-3)[GalNAc(b1-4)]GlcNAc6S
Method in brief: as §1

[50] = target: Fuc(a1-4)GlcNAc
Method in brief: as §1

[51] = target: Fuc(b1-3)GlcNAc
Method in brief: as §1

[52] = target: Gal(a1-2)Gal
Method in brief: as §1

[53] = target: Gal(a1-3)Gal
Method in brief: as §1

[54] = target: Gal(a1-3)Gal(b1-3)GlcNAc
Method in brief: as §1

[55] = target: Gal(a1-3)Gal(b1-3)GlcNAc(b1-2)Man
Method in brief: as §1

[56] = target: Gal(a1-3)Gal(b1-3)GlcNAc(b1-2)Man(a1-3)[Gal(a1-3)Gal(b1-3)GlcNAc(b1-2)Man(a1-6)]Man(b1-4)GlcNAc(b1-4)GlcNAc
Method in brief: as §1

[57] = target: Gal(a1-3)Gal(b1-3)GlcNAc(b1-3)GalNAc
Method in brief: as §1

[58] = target: Gal(a1-3)Gal(b1-3)GlcNAc(b1-6)GalNAc
Method in brief: as §1

[59] = target: Gal(a1-3)Gal(b1-3)[Fuc(a1-4)]GlcNAc(b1-2)Man(a1-3)[Gal(a1-3)Gal(b1-3)[Fuc(a1-4)]GlcNAc(b1-2)Man(a1-6)]Man(b1-4)GlcNAc(b1-4)GlcNAc
Method in brief: as §1

[60] = target: Gal(a1-3)Gal(b1-4)Glc
Method in brief: as §1

B1: MGL6A (Homo sapiens) (protein)
chain: MTRTYENFQYLENKVKVQGFKNGPLPLQSLLQRLCSGPCHLLLSLGLGLLLLVIICVVGFQNSKFQRDLVTLRTDFSNFTSNTVAEIQALTSQGSSLEETIASLKAEVEGFKQERQAVHSEMLLRVQQLVQDLKKLTCQVATLNNNGEEASTEGTCCPVNWVEHQDSCYWFSHSGMSWAEAEKYCQLKNAHLVVINSREEQNFVQKYLGSAYTWMGLSDPEGAWKWVDGTDYATGFQNWKPGQPDDWQGHGLGGGEDCAHFTPDGRWNDDVCQRPYHWVCEAGLGQTSQESH
glycan array binding signal (z-score) [1]: -0.165 | glycan array binding signal (z-score) [2]: -0.171 | glycan array binding signal (z-score) [3]: -0.176 | glycan array binding signal (z-score) [4]: -0.163 | glycan array binding signal (z-score) [5]: -0.177 | glycan array binding signal (z-score) [6]: -0.177 | glycan array binding signal (z-score) [7]: -0.178 | glycan array binding signal (z-score) [8]: -0.176 | glycan array binding signal (z-score) [9]: -0.166 | glycan array binding signal (z-score) [10]: -0.163 | glycan array binding signal (z-score) [11]: -0.171 | glycan array binding signal (z-score) [12]: -0.177 | glycan array binding signal (z-score) [13]: -0.173 | glycan array binding signal (z-score) [14]: -0.172 | glycan array binding signal (z-score) [15]: -0.186 | glycan array binding signal (z-score) [16]: -0.172 | glycan array binding signal (z-score) [17]: 5.97 | glycan array binding signal (z-score) [18]: -0.173 | glycan array binding signal (z-score) [19]: -0.178 | glycan array binding signal (z-score) [20]: -0.176 | glycan array binding signal (z-score) [21]: -0.171 | glycan array binding signal (z-score) [22]: -0.171 | glycan array binding signal (z-score) [23]: -0.176 | glycan array binding signal (z-score) [24]: -0.172 | glycan array binding signal (z-score) [25]: -0.178 | glycan array binding signal (z-score) [26]: -0.174 | glycan array binding signal (z-score) [27]: 5.98 | glycan array binding signal (z-score) [28]: -0.176 | glycan array binding signal (z-score) [29]: -0.167 | glycan array binding signal (z-score) [30]: 4.51 | glycan array binding signal (z-score) [31]: 5.17 | glycan array binding signal (z-score) [32]: -0.167 | glycan array binding signal (z-score) [33]: -0.155 | glycan array binding signal (z-score) [34]: -0.172 | glycan array binding signal (z-score) [35]: -0.175 | glycan array binding signal (z-score) [36]: -0.18 | glycan array binding signal (z-score) [37]: -0.172 | glycan array binding signal (z-score) [38]: -0.179 | glycan array binding signal (z-score) [39]: -0.168 | glycan array binding signal (z-score) [40]: -0.179 | glycan array binding signal (z-score) [41]: -0.17 | glycan array binding signal (z-score) [42]: -0.164 | glycan array binding signal (z-score) [43]: -0.176 | glycan array binding signal (z-score) [44]: -0.156 | glycan array binding signal (z-score) [45]: -0.171 | glycan array binding signal (z-score) [46]: -0.173 | glycan array binding signal (z-score) [47]: -0.177 | glycan array binding signal (z-score) [48]: 0.065 | glycan array binding signal (z-score) [49]: -0.069 | glycan array binding signal (z-score) [50]: -0.173 | glycan array binding signal (z-score) [51]: -0.176 | glycan array binding signal (z-score) [52]: -0.176 | glycan array binding signal (z-score) [53]: -0.171 | glycan array binding signal (z-score) [54]: -0.165 | glycan array binding signal (z-score) [55]: -0.175 | glycan array binding signal (z-score) [56]: -0.167 | glycan array binding signal (z-score) [57]: -0.173 | glycan array binding signal (z-score) [58]: 7.68 | glycan array binding signal (z-score) [59]: -0.167 | glycan array binding signal (z-score) [60]: -0.172
